Measurements published in PubChem BioAssay AID1508624 (National Center for Advancing Translational Sciences (NCATS), 2021).
Hit rate of the full screen: of about 48,000 compounds, about 120 (0.25%) were called active. Another 4% or so got no clear call; they are omitted. Calls come from the whole dose curve; as a rule, active = well fitted activation curve with a large enough effect; inconclusive = small, poorly fitted or top-dose-only effect, or another doubt; inactive = no such curve, though single readings can be large or run the other way. Some of the results follow.

assay: Primary qHTS for Identification of Small Molecule Activators of Huntingtin-Antisense Promoter Activity; details: HEK293 HTT-AS promoter firefly luciferase reporter, 24 h; series mostly up to 57.5 µM; activity change, positive = activation: at the top concentration; note: nearly all actives have a fitted effect of over 55% in size
Summary of the method: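 HEK293 cells carrying firefly luciferase reporters were seeded at 2,500 per well in Opti-MEM and cultured for 24 h. They were then treated with compounds at up to 57.5 uM final for 24 h at 37 degrees C before Dual-Glo luminescence readout.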
Potency is the fitted concentration of half-maximal effect.

Activity change, positive = activation, inactive:
O=C1COc2ccc(-c3cc(-c4ccc(Cl)cc4)c4c(n3)-c3ccccc3OC4)cc2N1 -12.6%
CCCCCNC(=O)c1ccc2c(c1)ncn2-c1cccc(C)c1 -17.6%
Cc1cccc(C(=O)Nc2nnc(S(=O)(=O)N(C)Cc3ccc(Cl)cc3)s2)c1 -31.1%
Cc1ccc(C(=O)NCC(c2ccc3c(c2)OCO3)N2CCN(c3ccc(F)cc3)CC2)cc1 (centres undefined) -39.8%
CCOc1ccccc1NC(=O)Cn1c(=O)n(Cc2nc(C)no2)c(=O)c2ccccc21 -18.3%
Cc1ccccc1C(=O)Nc1ccccc1OCc1cc(=O)n2ccccc2n1 -4.03%
CCN(CC)c1nc2c(S(=O)(=O)c3ccccc3)nnn2c2ccc(Cl)cc12 -40.3%
CCOc1ccc(CCNC(=O)c2c(C)oc3ncn(CC(C)C)c(=O)c23)cc1 -9.96%
Cc1n[nH]c(C)c1Cc1sc2c(c1C(=O)N1C[C@H](O)CO1)c(=O)n(C)c(=O)n2CC(C)C -15.5%
Cc1cccc(-c2nc(S(=O)(=O)c3ccc(Cl)cc3)c(N3CCCCCC3)o2)c1 -7.97%
Cc1cccc(CS(=O)(=O)Cc2ccc(C(=O)NCc3ccccc3)o2)c1 -20.2%
Clc1ccccc1CNc1ncnc2c1nc1n2CCCC1 -14.8%
Cc1cc(C)cc(NC(=O)c2cc(C)nc3c2c(C)nn3-c2ccccc2)c1 -7.51%
COc1cccc(-c2nc(SCC(=O)NCC3CCCO3)c(-c3ccc(C)cc3)[nH]2)c1 (centres undefined) -17.5%
COc1ccc(NC(=O)Cn2c(=O)n(CCC(C)C)c(=O)c3cccnc32)cc1Cl -29.6%
Cc1ccc(OCC(=O)N(Cc2ccc(Cl)cc2)Cc2ccco2)cc1C -18.9%
CCOc1ccc(NC(=O)c2cc3c(C)nn(-c4ccccc4)c3s2)cc1 -20%
CC(C)NC(=O)C1CCC(Cn2c(=O)c3sccc3n(CC(=O)N3CCCC3)c2=O)CC1 (centres undefined) -5%
COc1ccc(NC(=O)c2ccc3c(=O)n4nc(Nc5ccccc5C)sc4nc3c2)cc1Cl -11.2%
Cc1ccccc1Nc1cc(C(=O)NC2CCCC2)c2ccccc2n1 -13.3%
C[C@]1(CO)CN(c2cc(C(=O)Nc3ccc4c(c3)-c3c(c(C(N)=O)nn3-c3ccc(F)cc3)CC4)c(Cl)cn2)C[C@@]1(C)CO -41.8%
Cc1cccc(Cn2cc(/C=C(/C#N)C(=O)Nc3cccc(Cl)c3)c3ccccc32)c1 -20.8%
Cc1ccc(Cn2c(C(=O)O)c(CNC3CCCCC3)c3ccc(C)cc32)cc1 -13.8%
CCN(C(=O)c1cc2c(=O)oc3ccccc3c2s1)c1ccc(C)c(C)c1 0.441%
Cc1c(CNC2CCC(C)CC2)c(C(=O)O)c(C)n1Cc1ccc(Cl)cc1 (centres undefined) -17.2%
CCOC(=O)C(CC)Sc1ncnc2c1c(-c1ccccc1)cn2-c1ccc(OC)cc1 (centres undefined) -13.7%
O=C(NCCc1ccc(F)cc1)C(=O)NCC(c1cccs1)S(=O)(=O)c1ccc(Cl)cc1 (centres undefined) -49.3%
CCS(=O)(=O)N1CC(=O)N(c2ccc(Cl)cc2C)C(C)(C(=O)NC2CCCCC2)C1 (centres undefined) -3.97%
O=C(CSc1nnc(-c2ccccc2)c(-c2ccccc2)n1)NCCc1ccccc1 -20.4%
Cc1ccc(C)c(N(C)C(=O)c2cc3c(s2)-c2ccccc2OC3)c1 -17.8%
CCn1c(=O)c2cc(C(=O)NCc3ccc(F)cc3Cl)sc2c2ccccc21 -5.38%
Cc1cc(C)c(OCC(=O)N(Cc2ccc(N(C)C)cc2)CC2CCCO2)c(C)c1 (centres undefined) -27.9%
Cc1cc(=O)n(CC(=O)N2CCCc3ccccc32)c2c1c(C)nn2-c1cccc(F)c1 -16.9%
COC(=O)c1c(NC(=O)COc2ccc(C)cc2Br)sc2c1CCCC2 28.5% [at 11.5 µM, percent change from vehicle, -100% = no light]
Cc1cccc(NC(=O)C2CCCN(S(=O)(=O)c3ccc4c(c3)oc(=O)n4C)C2)c1C (centres undefined) -11.8%
Cc1ccc(CNC(=O)CN(C)S(=O)(=O)c2ccc3c(c2)c(=O)n(C)c(=O)n3C)cc1 -9.65%
CCOc1ccc(N(C)S(=O)(=O)c2cc(-c3cc(C)no3)ccc2OC)cc1 -43.4%
COc1cccc(N2C(=O)C(CC(=O)Nc3ccccc3)N(CCc3sccc3C)C2=O)c1 (centres undefined) -14.5%
CCc1ccccc1NC(=O)CN1C(=O)C2CCCN2c2ccc(S(=O)(=O)N(CC)CC)cc21 (centres undefined) -8.37%
CCCCCCCCCCCCCC(=O)OC(C)C 2.2%
CC(O)(P(=O)(O)O)P(=O)(O)O 1.24%
COc1ccc(-c2c(C)nn3c(-c4ccccc4)cc(C)nc23)cc1OC 1.46%
O=C(Cn1ncc2c3ccccc3n(Cc3cccc(Cl)c3)c2c1=O)NCCCc1ccccc1 -13.1%
Cc1cccc(C)c1NC(=O)Cn1cc(C(=O)c2ccco2)c2ccccc21 -21.9%
Cc1cc(C)n(C(C)CC(=O)Nc2cccc(C#N)c2)n1 (centres undefined) -12.3%
CCc1nc(Nc2ccc(F)c(Cl)c2)c2c3c(sc2n1)CCCC3 -35.2%
CCOc1ccc(-c2nn(-c3ccc(F)cc3)c3c2cnc2ccc(F)cc23)cc1 -14%
Cc1cc(O)c(C(c2ccccc2)N2CCN(c3ccccc3)CC2)c(=O)n1Cc1ccco1 (centres undefined) 7.79%
Cc1cccc(N(C)C(=S)Oc2ccc3c(c2)C2CCC3C2)c1 (centres undefined) -6.6%
CCCN(C(=O)Cc1nc(-c2ccc(OC)cc2)no1)c1ccccc1C -29.5%
CCc1cccc(C)c1NC(=O)CCCn1c(C)c2cnn(-c3ccccc3)c(=O)c2c1C -21.1%
CCCCOC(=O)c1ccc(OC(=O)c2sc3ncn(Cc4cccc(F)c4)c(=O)c3c2C)cc1 -7.49%
CCOC(=O)c1[nH]c(C)c(CCC(=O)Nc2ccccc2OCC)c1C -26.6%
CCC(C)NC(=O)Cn1c(=O)n(CCCCCC(=O)Nc2ccccc2)c(=O)c2sccc21 (centres undefined) 11.3%
COc1ccc(C(=O)Nc2nnc(SCc3cc(=O)c4cccc(F)c4[nH]3)s2)cc1 2.08%
Cn1c(=O)c2c(nc(NCCCCO)n2Cc2ccccc2Cl)n(C)c1=O 3.73% [at 11.5 µM, percent change from vehicle, -100% = no light]
CN1C(=O)CC(C(=O)Nc2ccc(C(=O)O)cc2)SC1=Nc1ccc(Cl)cc1 (centres undefined) -15.2%
Cc1ccc2c(=O)cc(C(=O)Nc3ccc(S(=O)(=O)N4CCCCC4C)cc3)oc2c1C (centres undefined) 4.17%
CCN(CC)c1ccc(NS(=O)(=O)c2cc(-c3onc(C)c3C)ccc2OC)c(C)c1 -29.9%
CCN(CC)CCCNC(=O)Cn1ncc2c3ccccc3n(Cc3ccccc3)c2c1=O -3%
COc1cccc(-c2nnc(SCC(=O)N(C)c3ccccc3)o2)c1 13.9%
COc1cc2[nH]c(=O)[nH]c(=O)c2cc1OC -2.33%
CC(=O)c1ccc(NC(=O)C(C)n2nc(-c3ccccc3)ccc2=O)cc1 (centres undefined) -7.45%
CCn1c2ccccc2c2cc(CN3CCN(Cc4ccc(Cl)cc4)CC3)ccc21 -30.5%
COCCCNC(=O)CSc1nc2cc3c(cc2c(=O)n1CCCCCC(=O)NCCc1ccc(OC)c(OC)c1)OCO3 -2.68%
CCc1nn2c(=O)cc(COC(=O)c3cccc(NC(=O)c4ccccc4C)c3)nc2s1 10.7%
COc1ccc2c(CNC3CCCC3)c(C(=O)O)n(Cc3ccccc3C)c2c1 -3.42%
CC(C)(C)C1CCc2nc(NC(=O)COc3ccccc3[N+](=O)[O-])sc2C1 (centres undefined) -76.5%
CC(C)C(=O)Nc1cccc(C(F)(F)F)c1 0.0493%
Cc1cc(C)c2c(=O)cc(C(=O)Nc3sc4c(c3C#N)CCCC4)oc2c1 -8.2%
O=C(NCc1ccc(F)cc1)c1ccc2c(c1)N(Cc1c(F)cccc1Cl)C(=O)CS2 -42.4%
CC1=C(c2ccc(C)cc2)S(=O)(=O)N(Cc2ccc(C(=O)NCc3ccccc3)cc2)C1=O -35.2%
Cc1ccccc1NC(=O)CN1C(=O)C2(SCC(=O)N2c2ccc(F)cc2)c2ccccc21 (centres undefined) -10.8%
CCn1cc(C(=O)NCCc2ccc(OC)c(OC)c2)c(=O)c2cc(S(=O)(=O)N3CCOCC3)ccc21 9.76%
CC1CCN(S(=O)(=O)c2ccc3c(ccn3CC(=O)NCc3ccccc3F)c2)CC1 -27.2%
COc1cccc(CNC(=O)c2ccc3c(c2)nc2n3CCOC2)c1OC -9.68%
Cc1ccc(C)c(NC(=O)CN2CCN(C3CCCCC3)C(=O)C2=O)c1 -0.195%
Cc1cnc(C(=O)NCCc2ccc(S(=O)(=O)NC(=O)NC3CCCCC3)cc2)cn1
CCc1nc2c(cnn2-c2ccc(C)cc2)c(=O)n1-c1ccc(C)cc1 -29.1%
O=C(Nc1cccc(C(F)(F)F)c1)c1cc(-c2ccc(Cl)cc2)on1 -7.78%
Cc1ccc(-c2noc(C(C)NC(=O)c3ccco3)n2)cc1 (centres undefined) -23.2%
COc1ccc(S(=O)(=O)c2c(SC)nn(CC(=O)Nc3ccc(C)c(Cl)c3)c2N)cc1 -66.1%
Cc1cc(-c2ncc(CC(=O)Nc3ccc(-c4cnccn4)cn3)cc2C)ccn1 -23.2%
CCOC(=O)c1[nH]c2ccccc2c1NC(=O)c1cc(OC)cc(OC)c1 -9.82%
COc1cccc(-c2ccnc3c(-c4ccccc4)c(C)nn23)c1 26.2%
C[C@H]1[C@H](NC(=O)C(=NOC(C)(C)C(=O)O)c2csc(N)n2)C(=O)N1S(=O)(=O)O -7.63%
CCOc1ccc(NC(=O)N2CCC(CN3CCC(C)CC3)CC2)cc1 -14.3%
COc1ccc(-c2cc(C(=O)NCCc3ccc(Cl)cc3)[nH]n2)cc1 -3.6%
Cc1ccccc1-c1nc2c3c(-c4ccccc4)c(-c4ccccc4)oc3ncn2n1 -3.05%
Cc1cccc(N2CCN(C(=O)COCc3cc(-c4ccc5c(c4)OCO5)on3)CC2)c1C 9.51%
COC(=O)c1ccccc1NC(=O)COCc1cc(-c2cccs2)on1 -22.8%
Cc1ccc(CNc2nc3c(c(=O)n(C)c(=O)n3C)n2Cc2ccc(Cl)cc2)cc1 10.5%
CCn1c(=O)n(-c2ccc(F)c(Cl)c2)c(=O)c2sc3ccccc3c21 -8.37%

Potency, active:
Cc1ccc2oc(-c3ccc(Cl)cc3)c(O)c(=O)c2c1 2510 nM
